# The other results are listed elsewhere or left out. Repeats are few or missing, and single values can be far off.
# How the values were obtained:
# Assay in all cases: cell count relative to DMSO control; melanoma cells; higher = more viable cells
# Conditions in all cases: library dose: standard library concentration; 72 h; first compound 2 µM
# G361 = tested on: G361
# IPC-298 = tested on: IPC-298
# IST-MEL1 = tested on: IST-MEL1
# LB2518-MEL = tested on: LB2518-MEL
# LOXIMVI = tested on: LOXIMVI
# MEL-HO = tested on: MEL-HO
# MZ2-MEL = tested on: MZ2-MEL
# MeWo = tested on: MeWo
# RPMI7951 = tested on: RPMI7951
# RVH-421 = tested on: RVH-421
# SkMel28 = tested on: SkMel28
# SkMel2 = tested on: SkMel2
# SkMel30 = tested on: SkMel30
# SkMel5 = tested on: SkMel5
# UACC257 = tested on: UACC257
# UACC62 = tested on: UACC62
# WM115 = tested on: WM115
# WM1716 = tested on: WM1716
# WM3526 = tested on: WM3526
# WM1745 = tested on: WM1745
# 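Note: cells treated in 1,536-well plates, then fixed and DAPI-stained, with nuclei counted from automated high-throughput microscope images.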
SMILES,cell count (G361) [%],cell count (IPC-298) [%],cell count (IST-MEL1) [%],cell count (LB2518-MEL) [%],cell count (LOXIMVI) [%],cell count (MEL-HO) [%],cell count (MZ2-MEL) [%],cell count (MeWo) [%],cell count (RPMI7951) [%],cell count (RVH-421) [%],cell count (SkMel28) [%],cell count (SkMel2) [%],cell count (SkMel30) [%],cell count (SkMel5) [%],cell count (UACC257) [%],cell count (UACC62) [%],cell count (WM115) [%],cell count (WM1716) [%],cell count (WM3526) [%],cell count (WM1745) [%]
CCCCCCCCCCCCCCCCCCOP(=O)([O-])OC1CC[N+](C)(C)CC1 [Perifosine] + COc1ccc(-c2ccc3c(N4CCOCC4)nc(N4C[C@@H](C)O[C@@H](C)C4)nc3n2)cc1CO [KU0063794] (partner dose 0.1 µM),84.8,86.8,86.4,93.9,77.5,77.2,102,94.1,40.5,99.2,76.8,94.6,103,82.4,97,84.3,100,85.6,91.5,
C[C@@H](N)c1ccc(C(=O)Nc2ccnc3[nH]ccc23)cc1 + Oc1cc(-c2nc(-c3ccccc3)[nH]c2-c2ccncc2)ccc1Cl [L779450] (partner dose 1 µM),66.3,101,93.3,109,83.7,83.3,63.8,52,83.4,48.7,52.7,36.4,102,61.6,82.8,62.3,59,58.3,52.3,
CCCCCCCCCCCCCCCCCCOP(=O)([O-])OC1CC[N+](C)(C)CC1 [Perifosine] + Nc1cccc2c1CN(C1CCC(=O)NC1=O)C2=O [lenalidomide] (partner dose 5 µM),88,97.6,108,105,72.3,101,110,105,46.5,88.1,62.4,82.4,93.3,109,83.2,66.8,88.5,85.3,76.7,110
CCCCCCCCCCCCCCCCCCOP(=O)([O-])OC1CC[N+](C)(C)CC1 [Perifosine] + Oc1nc(-c2ccc(C(F)(F)F)cc2)nc2c1CSCC2 [XAV939] (partner dose 10 µM),86.8,91.2,100,82.9,88.7,93.2,99.6,93,50.3,68.3,88.5,104,86.9,68.8,93,75.8,70.5,66.9,108,
Cn1sc(=O)n(Cc2ccccc2)c1=O + COc1ccc2c(c1)CCC1C2CCC2(C)C(NCCCCCCN3C(=O)C=CC3=O)CCC12 [U73122] (partner dose 2 µM),81.6,98.6,82.3,98.4,81.5,99.2,88.9,63.3,27,31.3,57.5,92.7,76.1,82.9,86.5,37.2,67.3,51.8,71.8,
C[C@@H](N)c1ccc(C(=O)Nc2ccnc3[nH]ccc23)cc1 + O=C(O)c1ccc2c(c1)nc(Nc1cccc(Cl)c1)c1ccncc12 [CX4945] (partner dose 2 µM),71.6,66.5,61.3,119,46.7,40.5,26.2,75.3,42.4,59.7,79.5,73.8,74,61,65.1,63.7,87.8,43,76,28.3
CCCCCCCCCCCCCCCCCCOP(=O)([O-])OC1CC[N+](C)(C)CC1 [Perifosine] + COc1cc2ncnc(Nc3ccc(Oc4ccccc4)cc3)c2cc1OC [SrcI1] (partner dose 10 µM),63.1,76.8,83.3,139,65.3,82.9,75.1,62.7,17.6,92.9,77,93.9,89.8,55.6,85.7,56.5,83.8,77.5,62.8,
Cn1sc(=O)n(Cc2ccccc2)c1=O + COc1cc2ncnc(Nc3ccc(Oc4ccccc4)cc3)c2cc1OC [SrcI1] (partner dose 10 µM),55.9,74.2,91,114,69.9,69,60,65.4,35.4,92.8,56.5,67.9,73.3,71.1,94.6,60.8,78.6,76.3,55.2,
CCCCCCCCCCCCCCCCCCOP(=O)([O-])OC1CC[N+](C)(C)CC1 [Perifosine] + CCc1ccc(CCOc2ccc(CC3SC(=O)NC3=O)cc2)nc1 [pioglitazone] (partner dose 10 µM),104,81.6,71.1,73.9,43.7,64,89.1,79.7,26.7,127,55.3,64.6,70.4,69.3,93.4,79.1,90.6,57,89.5,
C[C@@H](N)c1ccc(C(=O)Nc2ccnc3[nH]ccc23)cc1 + CCN(CC)CCCCNc1ncc2cc(-c3cc(OC)cc(OC)c3)c(NC(=O)NC(C)(C)C)nc2n1 [PD173074] (partner dose 0.5 µM),87.5,90.6,84,126,75.8,72.3,50.8,64.8,51.6,50.6,65.1,96.6,113,52.7,57.2,67.6,98.2,73,97,
CCCCCCCCCCCCCCCCCCOP(=O)([O-])OC1CC[N+](C)(C)CC1 [Perifosine] + O=C(Nc1ccccc1)c1cc([N+](=O)[O-])ccc1Cl [GW9662] (partner dose 10 µM),83.6,102,93.4,67.5,88.6,89.4,95,68.3,39.9,68.5,74.7,86.8,108,82,77,60.7,73.9,87.4,101,
Cn1sc(=O)n(Cc2ccccc2)c1=O + O=c1cc(-c2cccc3c2Sc2ccccc2S3)oc(N2CCOCC2)c1 [KU55933] (partner dose 5 µM),91.9,108,99.3,103,62.7,92.6,100,86.3,80.6,96.6,61.8,85.1,98.9,95.4,110,54.8,95.9,98.4,80.1,
CCCCCCCCCCCCCCCCCCOP(=O)([O-])OC1CC[N+](C)(C)CC1 [Perifosine] + CCCCCCCCCCCC1=C(O)C(=O)C=C(O)C1=O [Embelin] (partner dose 6 µM),77,66.3,63.5,82.9,92.5,70.8,91.2,108,60.4,66.1,72,73.6,114,110,92.7,75.7,88.8,88.1,84.4,
Cn1sc(=O)n(Cc2ccccc2)c1=O + O=C1NC(=O)/C(=C/c2ccc(-c3ccc(F)cc3O)o2)S1 [AS252424] (partner dose 5 µM),80.1,90.6,90.1,87.2,93.6,63.7,98.3,82.7,85.8,96.5,76,84.4,82.1,65.5,101,75.6,81.2,93.9,77.4,
C[C@@H](N)c1ccc(C(=O)Nc2ccnc3[nH]ccc23)cc1 + COc1ccc2c(c1)CCC1C2CCC2(C)C(NCCCCCCN3C(=O)C=CC3=O)CCC12 [U73122] (partner dose 2 µM),57.4,90,78.5,63.1,53.3,75.7,64.6,30.1,25,47.7,95.3,92.1,90.2,42.7,69.5,57.8,79.4,46.9,79.7,
CCCCCCCCCCCCCCCCCCOP(=O)([O-])OC1CC[N+](C)(C)CC1 [Perifosine] + O=C(O)C(=O)Nc1sc2c(c1C(=O)O)CCNC2 [TCS401] (partner dose 8.33333 µM),112,98.2,91.6,80.8,123,89.1,108,75,50.1,111,57.5,85.5,88,88.2,93.3,97.2,72.5,78.6,89.1,
C[C@@H](N)c1ccc(C(=O)Nc2ccnc3[nH]ccc23)cc1 + CC(=O)O[C@@]12CO[C@@H]1C[C@H](O)[C@@]1(C)C(=O)[C@H](O)C3=C(C)[C@@H](OC(=O)[C@H](O)[C@@H](NC(=O)OC(C)(C)C)c4ccccc4)C[C@@](O)([C@@H](OC(=O)c4ccccc4)[C@H]21)C3(C)C [Docetaxel] (partner dose 0.0005 µM),12.3,37.5,29.3,36.1,60.4,42.8,36.2,23.6,24.2,44.4,14.9,20.8,36.8,31.6,54.8,50.2,55.7,23.5,39.5,32.2
Cn1sc(=O)n(Cc2ccccc2)c1=O + COc1cc(N2CCC(N3CCN(C)CC3)CC2)ccc1Nc1ncc(Cl)c(Nc2ccccc2S(=O)(=O)C(C)C)n1 [NVP-TAE684] (partner dose 0.4 µM),82.7,90.9,114,99.8,107,78.1,109,74.5,93.3,83.5,95.1,83.7,101,81.4,96.1,65.7,102,101,92.1,
C[C@@H](N)c1ccc(C(=O)Nc2ccnc3[nH]ccc23)cc1 + O=S(=O)(c1ccccc1)N(CC(F)(F)F)c1ccc(C(O)(C(F)(F)F)C(F)(F)F)cc1 [T0901317] (partner dose 7 µM),65.7,70.4,87.2,95.2,68.8,57.4,61.3,59.9,59.5,115,86.4,84.6,72.1,49.4,42,59.4,102,40.1,81.7,

# Source: the supplement of paper PMC4604168 (melanoma cell lines)
